Results: the supplement of paper PMC3334620
In all, about 33,000 sequences were measured (“E-score (-0.5 to 0.5)”: median about -0.017, highest 2% from about 0.3 on). Some of the results follow.

biological target: T1, Sut1 (UniProt P53032); test: PBM E-score (8-mer binding enrichment) (E-score (-0.5 to 0.5)); higher = stronger / more preferred TF binding; most listed sequences are background and not binding sites; settings: protein concentration: 200 nM; construct: GST-full length
T1 sequence: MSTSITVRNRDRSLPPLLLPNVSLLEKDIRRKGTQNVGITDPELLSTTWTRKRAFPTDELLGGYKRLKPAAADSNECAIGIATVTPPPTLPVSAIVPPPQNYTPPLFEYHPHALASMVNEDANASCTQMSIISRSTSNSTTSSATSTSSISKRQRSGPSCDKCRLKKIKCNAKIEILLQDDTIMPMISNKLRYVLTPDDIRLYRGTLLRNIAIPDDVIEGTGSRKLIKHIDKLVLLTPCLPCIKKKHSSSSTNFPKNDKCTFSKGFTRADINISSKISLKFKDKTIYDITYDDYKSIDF
How it was run: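 Bound GST-tagged yeast transcription factors, applied at about 100-200 nM to double-stranded universal all-10-mer Agilent arrays, were detected with fluorescent anti-GST. Scans were normalised with masliner. A modified Wilcoxon-Mann-Whitney statistic, the E-score, was assigned to each ungapped eight-base word pooled with its reverse complement by the Universal PBM Analysis Suite.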

Sequence	PBM E-score
GAGTTGGC	-0.0198
CCCCAATA	-0.158
AACCGACG	-0.00778
AAACCATC	0.271
GGGCCAAA	-0.0244
CGTTGATA	0.189
ATTCAATC	0.193
GTTCCAGA	-0.0427
ACGACGCG	-0.0401
ACGTACAG	-0.16
GCAGCAGC	-0.307
AGGAGATG	0.0233
TAGACTAA	0.0585
GCACATCA	0.0466
CACTGTGG	-0.146
GAAGGTCC	0.144
ATGGTTCG	0.107
GGTCAATA	0.115
ACGTTACC	-0.0985
TGGGTTAA	-0.0031
CCAGGGAA	-0.379
GTGTCACA	0.00614
CGATGGGA	-0.101
ACACCTGG	-0.32
ATTTGCCA	-0.165

Sequence	PBM E-score
AGATAACT	0.136
TCTCACCA	0.0826
GCGGATCA	-0.0398
CATATGCC	0.00652
AAAATTTG	0.142
GGTGCGTA	-0.157
ATGGTGTA	-0.105
AGCGCTCC	-0.193
GGAGCACA	0.0392
CATCTTGC	-0.0807
ACCGCAAT	0.1
CCACAGCA	-0.141
CAAAAATC	0.125
ATGCTAAA	-0.0294
AGCGTAAA	0.0681
AACACGCG	0.0022
GTAACCGA	0.144
ATGAAGTG	0.0185
CTGAGAGA	-0.229
ATCAGTGC	-0.0601
CAGGAACG	-0.234
ATGTACGA	0.0933
AAGCTATC	0.142
AAAAGCGT	0.112
GCCATGAC	-0.172

Sequence	PBM E-score
GTAATTCA	0.182
ACCTCCAG	-0.0553
ACGGGTAG	-0.14
CGACAGGC	-0.216
ATGTTCCG	0.129
AACCGGAT	0.222
CCCGCACC	-0.153
ACAATTAG	0.0439
GATCATCC	0.00327
AGAGTTTA	0.27
CACGTCCG	-0.0345
AGTGACGA	0.0288
AGAGACAT	-0.0149
CGGACGGA	0.231
GGGGTTAA	0.129
GACACTGA	0.0506
CCTTGAAC	-0.0776
AAACTGGT	0.128
ACCAATCC	-0.0267
GTAGCACA	-0.00356
GAGTGTAC	0.0572
GGTAAGAC	-0.0931
CTCAAATA	0.0259
CTGATTTA	0.121
AGCTGGAT	-0.0844

Sequence	PBM E-score
CTTATACA	0.0738
ACAAGGCC	-0.275
ATCATGGG	-0.181
AGCGTACA	-0.175
AGAAGTTA	0.0971
CCCCCGAG	-0.343
AGGCCCGG	-0.106
ATTCAAGG	-0.108
AACTGAGA	-0.00112
GATGATAA	0.0829
CACAAGCA	-0.164
GGGCAACA	-0.116
ACCAGCGT	-0.199
CCCAATCG	-0.0649
ATACTAGG	-0.0332
AAAAGGTG	0.0819
AAGGGCCC	-0.29
ATCACGCG	0.155
CGCAACTC	0.0791
GCGAGTCA	-0.0157
TAGCACCA	-0.0675
AACAAAAA	0.235
AGGTTAGG	-0.0421
ACCCAGGT	-0.321
GAACGCAA	0.0304

Sequence	PBM E-score
ACGGAAAT	0.344
CTTGCGAA	0.129
ACTCGTTC	-0.0358
ATCGTCGG	0.0502
ACTGCGTC	0.0204
ATGCCGCC	-0.104
CTTGCATC	-0.216
CTAATAAC	0.14
AGTATAGG	0.167
AAAAGACC	-0.07
CATGCAAC	0.0373
CCAGCGAC	-0.244
ACTCTTTA	0.131
GTGCGTGA	-0.0457
AATGCGTA	0.14
AGCGACTA	-0.118
CTCGCGCC	-0.113
ACATCCTA	-0.00892
CAAGGCTA	0.0982
CCAAAAGA	0.119
GGGTATGA	-0.0075
GTTAGCAA	0.0451
CACCGACG	0.0397
AGGCGAGC	-0.207
CCCATAAG	-0.2

Sequence	PBM E-score
AATGGCTA	0.144
ACCCTAGG	-0.104
AGCCTCCT	-0.203
GGCGAACA	-0.155
CAACGCAA	0.111
GCTAACAC	0.00897
CGTCGTCC	-0.0848
CCCGGCGG	-0.171
ACATGGGG	-0.311
ATATCCAC	-0.0115
AAATGAGC	-0.096
AGGCGTAT	-0.0672
ATTCGGCG	-0.0582
CGTACCTC	-0.044
GAACAATC	0.0453
AAATCAGC	0.0573
GTTGAATA	0.203
AGTGATGC	-0.0998
CTTCGCCC	-0.13
CATGCAGG	-0.264
ACTAATTA	0.247
GCCGATCA	0.023
GATTCGAA	0.209
ACCGGGCT	0.037
AGATACAC	0.136

Sequence	PBM E-score
CATCACAC	0.00013
AGATTGCT	-0.054
CACCATCC	-0.216
ATAGACAC	-0.046
TGGACCAA	0.0191
AGTTCCTC	-0.0836
CCAACCGG	0.0398
ACTAGACG	-0.00534
CACAAATG	0.0358
CAACGGAA	0.25
GCGGACCC	0.101
GTACGGCA	0.0305
ATATGGGG	-0.248
AAGAAGTA	0.0747
AAGATACA	0.127
GGTCTGTA	-0.107
CAGTCCCC	-0.297
ATGGGGGC	-0.409
CACCAAGC	-0.171
AGAGAGCG	-0.0777
GTCACGGA	0.181
CAGATTGG	-0.188
